Results from the supplement of paper PMC10681739.
Over roughly 4,100 sequences, “arbitrary fluorescence units” has its median near 780; the highest 2% begin near 22,000. The list shows a part of the results.

molecular target: T1, ETS1 (UniProt P14921); experiment: ETS1 binding intensity (PBM fluorescence), ETS1 alone (arbitrary fluorescence units); higher = stronger binding; details: ETS1 concentration 1 nM; RUNX1 concentration 0 nM
T1 sequence: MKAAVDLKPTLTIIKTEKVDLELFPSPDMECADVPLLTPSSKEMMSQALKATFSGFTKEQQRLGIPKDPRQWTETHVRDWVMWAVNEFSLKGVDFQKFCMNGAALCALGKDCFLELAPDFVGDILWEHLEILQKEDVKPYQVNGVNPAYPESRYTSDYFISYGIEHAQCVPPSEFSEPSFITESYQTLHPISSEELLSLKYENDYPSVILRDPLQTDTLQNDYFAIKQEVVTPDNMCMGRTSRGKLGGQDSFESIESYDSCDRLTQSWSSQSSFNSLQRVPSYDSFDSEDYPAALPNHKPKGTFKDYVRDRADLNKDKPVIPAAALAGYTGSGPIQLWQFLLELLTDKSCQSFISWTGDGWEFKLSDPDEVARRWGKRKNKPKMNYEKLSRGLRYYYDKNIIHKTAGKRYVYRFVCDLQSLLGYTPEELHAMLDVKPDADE
Summary of the method: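 Double-stranded Agilent 4 × 180k arrays held 36-bp genomic probes whose RUNX1 partner site was mutated, and these were incubated with 1 nM full-length recombinant human ETS1 in the absence of RUNX1 under standard PBM protocols. Bound protein was labelled with anti-ETS1 antibody (Cell Signaling Technology 14069) plus an Alexa488-conjugated secondary and read on a GenePix 4400A, with four spots printed per sequence. Binding level is reported as raw spot fluorescence intensity summarised over replicate spots.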

Row | Sequence | ETS1 binding intensity
1 | CTTCTAGGAAATGTAGTTCCTGGGCCCTCAGCCGGG | 413
2 | CCCCATCCTTGACAACAGGACCAGGAAGTCAGGGCA | 1230
3 | GTATGGGAAGTGATCTGGCTGCAAATCGCAAGAGAG | 488
4 | ACTGGGGTTTCGGCGTCTAAGTGTTTCCGGTGGATT | 3980
5 | TGAAGAACCAGCAGCAGCTCCCAGGATGAACTGGTT | 325
6 | ACAGCATTTCCTGGTGGCCAGATATCTGAGCTTTCA | 7160
7 | TCCCCTACCGTTAGTGGAAGAAGATGGCGGAAGGCG | 451
8 | GGATGAACAGGAAGCTAAAGTAAATACGACAGTGAC | 2270
9 | CTCAGCCCTCCGCTGCGCGGCCGGAAGTCGGAGGTT | 4040
10 | GCCCACGCCGCTGGGAGGTGAGACTGAAGGAAGCAC | 402
11 | GGGCCGCGATCAGGGCTGGCCACGGGAAGCAGACAG | 302
12 | AGACCCGGAAATGGTGGGTGTTTCTTGCAACCTCGG | 5480
13 | CTGGGGACCTGTGATTTGCTGGCGGAAACAAGTGAT | 418
14 | TAAGTGCAGGAAACGGCTGTGTAGGTGTCAGTGATT | 1970
15 | CCAGACAGTTTCCTCTGGTTGAGGGTGATGGTTCCA | 1650
16 | TTCTCATTTGTAGGTATCTGACAACATCCTCCTCTC | 581
17 | AAAACAAGGACTTCCGCCTCCCTGCAGTCCCTCCCC | 9360
18 | AGCAGGAAGTATGTTGAAAGTCATAATCACAGCAAA | 2060
19 | ACAGGAAATGTTAGAGGTTGAGTTAGAGGTTATGAG | 629
20 | AGGCCGCCTACAGGATGTTGGAAACTACAGGGCCCG | 2640
21 | ACAGGAAAAGCTGTAAGCAGTGTCTGCAGCTTTCTC | 437

Row | Sequence | ETS1 binding intensity
22 | TCCTGGCTGCCCCCAAGGCCAGGAAGAGCGAAAACA | 434
23 | ACCATCCTGTAGTCTGTTAAGTGAGCAACAGCATTA | 4970
24 | GGCGGGAGAGGAAGCCGGGCGGCCGAAGCTGCCTGT | 811
25 | GGAGCAGGAAGCGTCGCCGGGGGGCCTACAAGGGTA | 1810
26 | AGCGACAGCGGATGCTCTCTGGCCGTAACATTCTTT | 1480
27 | ATAGACCCAGCCCGTCCGGTAACCGTGCTCCTCGAT | 454
28 | CCCCGTTACGCCCATCCGGCTCCCGAATAGGGCGTC | 2610
29 | AAGGGCCAGGAAGGGTGGAGTCTTTTCGGGGTGAGA | 406
30 | AGCGTCCGGTCGCGCCGCGCTCTAGCACCCCAGCAC | 11900
31 | GAGACGTGTGATAATTACTGTTTTCCAGGAAGTGGC | 495
32 | GGAGAGTTGACTTCCGGCGGCTTGGGGGAGTGCTGG | 21100
33 | ACTCTTCGGCCCAGCTGCTTCTGTGCACAGGAAATA | 743
34 | ACTACACTTCCCGGCAGGGACAGCGGCCCAGCGTAC | 2100
35 | GTGTACGGAAGCTGAGAGGGCCCGAGGGTAGGCATG | 521
36 | TTCAATCACAGGAAACAGACGTCACCCTCAGACCTA | 1570
37 | GAAAAAAATGAGCTTCCTTTAACCAGAACTGTATTA | 1110
38 | ATCGGAAACCAGTGAGCTCATTAGAATCCGCTTATC | 438
39 | AGTTGTGAAACCCCAAAACACAGAAAGGAAGTGGTC | 527
40 | GGACCGGAAGTAGGTTTCTACCCGAGCGCATTTTAC | 27600
41 | GCTGTTTATTTCCGTGCCTGCTGCTGGAGCTTCTTA | 2670
42 | TTCTCATCCGGCCGGCTTGCTTTCCCCTGCAGTCGT | 4670

Row | Sequence | ETS1 binding intensity
43 | TGGTACCCCAAAGCGGCGGCAGGAGGGATGTTTCTG | 386
44 | TCCATCCTGATTCTCTCGGACTTTTCACCCGCCCGG | 1910
45 | CCCACCCAGGAAGCCGTCCTAACTACAACAGCCCTC | 876
46 | AAACCAGAGGAAGTGGATTCCAACTACAAACCTCAC | 1830
47 | CGGCGCGGCGGACGTTGCTGCCGTAGGACGTGCCCG | 361
48 | GGCCAAAGCACTTTATCGTGGAGCCAATTTCCTCAG | 369
49 | TAAAATCGTTTCCCGACTCGCTCTTCGGCCCCACGC | 577
50 | ACCCCAAGCCCATAAACCCACCGGAAGGAACCAACT | 1500
51 | GAACGGTGTGTCCACGAGAGTCTAGAGGAAACCAAC | 336
52 | TTGGTAAATCTTTTCCTGTGCTGCAGGCCCTTGTCC | 1340
53 | AGCAACAACAAAGGAAGTGGCGGCCGCTGGGGGAGG | 1540
54 | TATTCATGACATCCTGTCGGGCTTGTAGGCTGCGTA | 10900
55 | CTGGAGCCCTCAACAACTCCGGGCGGAAGCAGCAGG | 660
56 | GACAAAGCGGCGGCAGGAGGGATGTTTCTGCACTGG | 365
57 | GACCACTTCCTTTCTGTGTTTTGGGGTTTCACAACT | 11900
58 | AAGATGCCCCCTTCCGCTGGAAAGCGGCAATGCCCA | 2320
59 | CTGCATGACGTGTGATTTTCATCTTCCGCAGGCGTG | 411
60 | GCACTTCCGGAGCCGGGCGTCTACAGGCCGAGGCCA | 28500
61 | TCTACATCCTGCAGTTCTCCATTGGGGCCATTAGGT | 7570
62 | TCCTATATACTTCCGTTTGCCTCGCGGATTCTTTCT | 8300
